Among all 360,000 compounds or so, about 25,000 (6.9%) were called active. This list was built around the results that the source calls inconclusive (neither active nor inactive); the mix of calls is not that of the screen. The call rests on the fitted dose curve; in most records, active means well fitted inhibition curve with a large enough effect; inconclusive means small, poorly fitted or top-dose-only effect; inactive means flat fitted curve, though single readings scatter. Where the call is inconclusive, the potency comes from a doubtful curve fit.
target: Luciferin 4-monooxygenase (Photinus pyralis) (UniProt P08659); assay: qHTS profiling assay for firefly luciferase inhibitor/activator using purifed enzyme and Km concentrations of substrates (counterscreen for miR-21 project); settings: purified FLuc, luminescence inhibition; series mostly up to 57.5 µM; activity change, negative = inhibition: at the top concentration; further: nearly all actives have a fitted effect of over 55% in size;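 on activity change, negative = inhibition: plate controls were vehicle for no effect and reference inhibitor for full effect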
Chain of UniProt P08659 (P08659 whole entry, looked up): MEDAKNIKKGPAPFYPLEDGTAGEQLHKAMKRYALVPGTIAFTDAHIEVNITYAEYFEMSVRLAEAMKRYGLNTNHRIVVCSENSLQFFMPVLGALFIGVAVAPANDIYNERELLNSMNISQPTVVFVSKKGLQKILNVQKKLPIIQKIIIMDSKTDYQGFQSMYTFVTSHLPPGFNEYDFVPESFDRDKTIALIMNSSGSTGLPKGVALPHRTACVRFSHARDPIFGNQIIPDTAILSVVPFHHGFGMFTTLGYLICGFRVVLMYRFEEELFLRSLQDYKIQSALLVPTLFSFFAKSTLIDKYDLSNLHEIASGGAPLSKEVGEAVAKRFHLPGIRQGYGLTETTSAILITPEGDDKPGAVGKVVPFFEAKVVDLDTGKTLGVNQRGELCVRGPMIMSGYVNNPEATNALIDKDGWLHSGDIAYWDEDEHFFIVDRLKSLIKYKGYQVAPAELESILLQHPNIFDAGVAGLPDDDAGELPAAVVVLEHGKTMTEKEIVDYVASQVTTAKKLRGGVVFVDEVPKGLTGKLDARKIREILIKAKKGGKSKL
Summary of the method: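 Purified P. pyralis luciferase (10nM final) with 10uM D-luciferin and 10uM ATP (Km levels) in 50mM Tris acetate pH 7.5, 10mM Mg acetate, 0.01% Tween-20, 0.05% BSA; qHTS 6-point titration, ~60 µM downward; luminescence read.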
Potency means the concentration at half of the fitted maximal effect; tags describe the fitted curve by direction and shape.

| SMILES | Potency | activity change, negative = inhibition |
| --- | --- | --- |
| Cc1ccc(/C=N/NC(=O)c2ccc(Cn3cc([N+](=O)[O-])cn3)o2)cc1 | inconclusive: 5.36 µM [inhibitor, partial curve, poor fit] | – |
| O=C(COC(=O)c1cccc(NC(=O)c2ccco2)c1)c1ccc(Br)cc1 | active: 1.69 µM | – |
| c1ccc(-c2cnc(CSc3ncnc4sccc34)o2)cc1 | inconclusive: 30.1 µM [inhibitor, single point] | – |
| COc1ccc(NC(=O)COc2ccc(C)cc2)c([N+](=O)[O-])c1 | inconclusive: 2.39 µM [inhibitor, full curve] | – |
| Cc1cc(C)cc(Nc2cc(C(=O)NC3CCC(C)CC3)c3ccccc3n2)c1 (stereo not given) | – | inactive: -7.68% |
| CN(Cc1ccc(F)cc1)S(=O)(=O)c1nnc(NC(=O)c2ccccc2Cl)s1 | inconclusive: 13.5 µM [inhibitor, partial curve] | – |
| Cn1nnnc1SCCCNCc1ccc(-c2ccc(F)c(Cl)c2)o1 | – | inactive: 5.41% |
| CCOC(=O)c1ccc(N2Cc3ccccc3C2=N)cc1 | inconclusive: 30.1 µM [inhibitor, partial curve, poor fit] | – |
| Cn1c(=O)cc2c3c(c(N4CCCCC4)ccc31)C(=O)c1ccccc1-2 | inconclusive: 37.9 µM [inhibitor, single point] | – |
| CNc1ccc(-c2nc(-c3ccco3)no2)cc1[N+](=O)[O-] | inconclusive: 6.75 µM [inhibitor, full curve, poor fit] | – |
| O=C(COC(=O)Cn1cnc2ccccc2c1=O)Nc1ccccc1Sc1ccc(Cl)cc1 | inconclusive: 26.9 µM [inhibitor, single point] | – |
| Cc1ccc(C(=O)/C=C/c2c[nH]c3ccccc23)cc1 | active: 5.36 µM | – |
| Cc1ccccc1NC(=O)c1ccc2c(O)c(S(=O)(=O)c3ccccc3)c(=O)[nH]c2c1 | inconclusive: 42.6 µM [inhibitor, partial curve, poor fit] | – |
| CC(=O)c1c(C)[nH]c(C(=O)OCC(=O)Nc2sc3c(c2C#N)CCC(C)C3)c1C (stereo not given) | inconclusive: 37.9 µM [inhibitor, single point] | – |
| O=Cc1cc2ccccc2nc1SCCCF | inconclusive: 37.9 µM [inhibitor, partial curve, poor fit] | – |
| CCOCC(=O)Nc1nc2ccc(OC)cc2s1 | active: 12 µM | – |
| O=C1CSC(=S)N1/N=C/c1cc(Br)c(O)c(Br)c1 | inconclusive: 21.3 µM [inhibitor, single point] | – |
| CCOc1ccc(NC(=O)CN(C)C(=O)c2c(C)nn(-c3ccccc3)c2Cl)cc1OCC | – | inactive: -1.64% |
| O=C(NCC(c1ccc2c(c1)OCO2)N1CCOCC1)C(=O)Nc1ccccc1 (stereo not given) | – | inactive: -1.13% |
| O=C(Cc1c(Cl)cccc1Cl)OCC(=O)N1CCc2ccccc2C1 | inconclusive: 26.9 µM [inhibitor, partial curve, poor fit] | – |
| COc1ccccc1C1Nc2c(sc3nc(C)cc(C)c23)C(=O)N1c1ccccc1 (stereo not given) | inconclusive: 15.1 µM [inhibitor, partial curve] | – |
| COCCNC(=O)/C(C#N)=C/c1ccc(O)cc1 | inconclusive: 21.3 µM [inhibitor, partial curve, poor fit] | – |
| COc1ccc(-c2nn(-c3ccccc3)cc2CNCc2cccnc2)c(F)c1 | inconclusive: 30.1 µM [inhibitor, partial curve, poor fit] | – |

| SMILES | Potency | activity change, negative = inhibition |
| --- | --- | --- |
| O=C(Nc1cccc(/C=C/c2ccccn2)c1)c1cc(Cl)ccn1 | active: 19 µM | – |
| Cc1ccc(-c2onc3ccc(C=O)cc23)cc1 | inconclusive: 30.1 µM [inhibitor, single point] | – |
| NC(=O)C1CCCN(C(=O)c2cccc(NC(=O)c3cccs3)c2)C1 (stereo not given) | – | inactive: -3.38% |
| O=C(NCCN1CCOCC1)c1cc(-c2ccc(Cl)c(Cl)c2)on1 | – | inactive: -0.944% |
| COc1cc(/C=N/NC(=O)C(=O)/C=C2\NC(C)(C)Cc3ccccc32)ccc1O | inconclusive: 21.3 µM [inhibitor, partial curve, poor fit] | – |
| Nn1c(COc2ccc(Cl)cc2)nc2ccccc2c1=O | inconclusive: 7.57 µM [inhibitor, single point] | – |
| CCOc1cc(/C=C2\SC(N3CCCC(C)C3)=NC2=O)ccc1O (stereo not given) | active: 9.53 µM | – |
| COCCNC(=S)Nc1ccc(N2CCCCC2)cc1 | inconclusive: 37.9 µM [inhibitor, partial curve, poor fit] | – |
| O=C(c1ccc(C23CC4CC(CC(C4)C2)C3)o1)N1CCOCC1 | inconclusive: 15.1 µM [inhibitor, partial curve] | – |
| Cc1ccc(C(=O)NN=C2CCCCCC2)s1 | inconclusive: 37.9 µM [inhibitor, single point] | – |
| CCc1ccccc1NC(=O)Nc1nnc(N(C)Cc2ccccc2)s1 | – | inactive: -10.4% |
| COc1cc(C2Nc3ccc4ncccc4c3C3=C2C(=O)CCC3)cc(OC)c1OC (stereo not given) | inconclusive: 33.8 µM [inhibitor, single point] | – |
| O=C(O)CC/C(=N\NC(=O)c1ccc(F)cc1)c1ccc(Br)cc1 | inconclusive: 30.1 µM [inhibitor, partial curve, poor fit] | – |
| Cn1c(=O)c2c(nc(NN=C3CCCCC3)n2C)n(C)c1=O | inconclusive: 30.1 µM [inhibitor, partial curve, poor fit] | – |
| Cc1ccsc1/C=N/Nc1nc(=O)[nH]nc1C | inconclusive: 26.9 µM [inhibitor, partial curve] | – |
| COc1ccc(C(=O)Nc2nc3ccc4nc(C)sc4c3s2)cc1 | – | inactive: -10% |
| CCC(C(=O)O/N=C(\N)c1ccc(C)cc1)c1ccccc1 (stereo not given) | inconclusive: 30.1 µM [inhibitor, partial curve, poor fit] | – |
| CCN(CC)c1ccc(C(=O)NNC(=O)c2ccc3c(=O)n4c(nc3c2)CCC4)cc1 | inconclusive: 23.9 µM [inhibitor, single point] | – |
| CN1CCN(C(=O)CCCN2C(=O)/C(=C/c3ccccc3)SC2=S)CC1 | – | inactive: -18% |
| O=C(NCCCN1CCOCC1)c1cc(-c2cccs2)on1 | – | inactive: -9.27% |
| CC1CCCc2sc3nc(NCc4ccco4)n4ncnc4c3c21 (stereo not given) | – | inactive: -18.8% |
| Cc1ccccc1C(=O)O/N=C1\CCS(=O)(=O)c2sccc21 | active: 0.601 µM | – |
